Reference: the RNAGym collection of RNA variant scans (doi:10.1093/nar/gkz1192)
Read counts are not given, so values of variants with three or more changes are uncertain.

B1: CPEB3 Ribozyme (parent)
chain: UAACAGGGGGCCACAGCAGAAGCGUUCACGUCGCAGCCCCUGUCAGAUUCUGGUGAAUCUGCGAAUUCUGCUGUAUAUCUC

Variants of: B1
Experiment: self-cleavage, relative activity (ratio to wild type); higher = more cleavage; in vitro, sequencing
Outline: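 Libraries of CPEB3 self-cleaving ribozyme mutants came from rounds of error-prone PCR and carried barcodes, which DNA sequencing matched to variants. In vitro transcription used T7 RNA polymerase at 37°C for 5 hours, with a further 15 min in DNase I before EDTA stopped the reaction; the ribozymes cleaved during both steps. The RNA was reverse transcribed with template switching and sequenced on Illumina. Relative activity is the cleaved/total read fraction of a variant divided by that of the unmutated ribozyme, averaged over three batches with at least 5 reads.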

Variant	self-cleavage
UAACAAGGGGCCGCAGCAGAAGCGUUCACGUCGCAGCCCCUGUCAGGUUCUGGUGAACCUGCGAAUUCUGCUGCGUAUCUC [G6A A13G A47G U58C U74C A75G]	0.11
UAACUGGGGGCCACAGCAGAAGCGUUCACGUCGCAGCCCCUGUCAGAUUCUGGUGAACCUGCGAAUUCUGCUGUACAUCAC [A5U U58C U76C U80A]	0.43
UAACUGGGGGCCACAGCAGAAGCGUUCACGUCGCAGCCCCUGCCAGAUUCUGAUGAAUCUGCGAAUUCUGCUGUAUAUCUC [A5U U43C G53A]	0.72
UAACUGGGGGCCACAGCAGAAGCGUUCACGUCGCAGCCCCUGUCAGAUUCUGGUGAAACUGCGAAUUCUGCUGUAUACCUC [A5U U58A U78C]	0.3
UAACUGGGGGCCACAGCAGAAGCGUUCACGUCGCAGCCCCUGUCAGAUUCUGGUGAAACUGCGAACUCUGCUGUGUAUCUC [A5U U58A U66C A75G]	0.15
UAACUGGGGGCCACAGCAGAAGCGUUCACGUCGCAGCCCCCGUCAGAUACUGGUGAGUCUGCGAAUUCUGCUGUAUGUCUC [A5U U41C U49A A57G A77G]	0.44
UAACUGGGGGCCACAGCAGAAGCGUUCACGUCGCAGCCCCUGGCAGAUACAGGUGAAUCUGCGAAUUCUGCUGUAUAUCUC [A5U U43G U49A U51A]	0.28
UAACUGGGGGCCACAGCAGAAGCGUUCACGUCGCAGCCCCUGUCAGAUUCUGGUGAAUCUGCGAAUUCUGCCGUAUAACUC [A5U U72C U78A]	1.03
UAACUGGGGGCCACAGCAGAAGCGUUCACGUCGCAGCCCCAGUCAGAUUCUGGCGGAUCUGCGAAUUCUGCUGUAUAUCUC [A5U U41A U54C A56G]	0.12
UAACUGGGGGCCACAGCAGAAGCGUUCACGUCGCAGCCCCUGCCCGGUUCUGGUGAAUCUGCGAAUUCUGCUGUAUAUCUC [A5U U43C A45C A47G]	0.51
UAACUGGGGGCCACAGCAGAAGCGUUCACGUCGCAGCCCCUGUCAGAUUCUGGCGAAUCUGCGAAUUCCGCUGUAUGUCAC [A5U U54C U69C A77G U80A]	1.08
UAACUGGGGGCCACAGCAGAAGCGUUCACGUCGCAGCCCCUGUCAGAUACUGGUGAACCUGCGGAUUCUGCUGUAUACCUC [A5U U49A U58C A64G U78C]	0.1
UAACUGGGGGCCACAGCAGAAGCGUUCACGUCGCAGCCCCAGCCAGCUUCUGGUGAAUCUGCGAAUUCUGCUAUAUAUCUC [A5U U41A U43C A47C G73A]	0.1
UAACUGGGGGCCACAGCAGAAGCGUUCACGUCGCAGCCCCUGUCAGAUUCCGGUGAAUCUGCGAACUCUGCUGUAUAUCUC [A5U U51C U66C]	0.4
UAACAAGGGGCCGCAGCAGAAGCGUUCACGUCGCAGCCCCUGUCAGAUUAUGGUGAAUCUGCGAAUUCUGCUGUAUUUCUC [G6A A13G C50A A77U]	0.05
UAACUGGGGGCCACAGCAGAAGCGUUCACGUCGCAGCCCCUGUCAGAUUCUGGUGAAUCCGCGAAUUCUGCUGUAUAUCAC [A5U U60C U80A]	0.47
UAACUGGGGGCCACAGCAGAAGCGUUCACGUCGCAGCCCCUGUCAGAUUCUGGUGAACCCGCGGAUCCUGCUGUAUAUCUC [A5U U58C U60C A64G U67C]	0.13

Variant	self-cleavage
UAACUGGGGGCCACAGCAGAAGCGUUCACGUCGCAGCCCCUGUCAGAUUCUGGCGGAUCUGCGAAUUCUGCAGUAUACCUC [A5U U54C A56G U72A U78C]	0.57
UAACUGGGGGCCACAGCAGAAGCGUUCACGUCGCAGCCCCGGUCAGAUUCUGGCGAAUCUGCGAAUUCUGCUGUAUAUCUC [A5U U41G U54C]	0.4
UAACUGGGGGCCACAGCAGAAGCGUUCACGCCGCAGCCCCUGUCAGAACCUGGUGAAUCUGCGAAUUCUGCUGUAUAUCUC [A5U U31C U48A U49C]	0.5
UAACUGGGGGCCACAGCAGAAGCGUUCACGUCGCAGCCCCUGUCAGAUACUGGUGAAUCUGCGAAUGCUGCUGUAUAUCUC [A5U U49A U67G]	0.23
UAACUGGGGGCCACAGCAGAAGCGUUCACGUCGCAGCCCCAGUCAGAUUCUAGUGAAUCUGCGAAUUCUGCUGUAUAUCUC [A5U U41A G52A]	0.66
UAACUGGGGGCCACAGCAGAAGCGUUCACGUCGCAGCCCCUGCCAGAUCCUGGUGAAUCUGCGAAUUCUGCUGUAUAUCUC [A5U U43C U49C]	0.22
UAACUGGGGGCCACAGCAGAAGCGUUCACGUCGCAGCCCCUGUCAGACUCUGGUGGAUCUGCGAAUUCUGCUGUAUAUCUC [A5U U48C A56G]	0.51
UAACUGGGGGCCACAGCAGAAGCGUUCACGCCGCAGCCCCUGUCAGAUCCUGGUCAAUCUGCGGAUUCUGCUGUAUAUCUC [A5U U31C U49C G55C A64G]	0.26
UAACUGGGGGCCACAGCAGAAGCGUUCACGUCGCAGCCCCUGUCAGAUUCUGGUGAACCCGCGAAUUCUGCUGUAUAUCUC [A5U U58C U60C]	0.19
UAACUGGGGGCCACAGCAGAAGCGUUCACGUCGCAGCCCCUGCCAGAUUCUGGUGAAUCUGCGAAUUCAGCUGUAUAUCUC [A5U U43C U69A]	0.35
UAACUGGGGGCCACAGCAGAAGCGUUCACGUCGCAGCCCCUGUCAGAUCCUGGUGAAUCUGCGAUUUCUGCUGUAUAUCUC [A5U U49C A65U]	0.21
UAACUGGGGGCCACAGCAGAAGCGUUCACGUCGCAGCCCCUGUCAGAUUCUGGUGAACCUGCGAAUUCUGCCGUAUAUCUC [A5U U58C U72C]	0.72
UAACUGGGGGCCACAGCAGAAGCGUUCACGUCGCAGCCCCUGUCAGACUCAGGUGAAUCUGCGAAUUCUGCUGUAUAUCUC [A5U U48C U51A]	0.51
UAACUGGGGGCCACAGCAGAAGCGUUCACGUCGCAGCCCCAGUCUGAUUCUGGCGAAUCUGCGAAUUCUGCUGUAUAUCAC [A5U U41A A45U U54C U80A]	0.08
UAACUGGGGGCCACAGCAGAAGCGUUCACGUCGCAGCCCCUGUCAGAUUCUGGCGAAUCUCCGAAUUCUCCUGUAUAUCUC [A5U U54C G61C G70C]	0.42
UAACUGGGGGCCACAGCAGAAGCGUUCACGUCGCAGCCCCUGCCAGAUUCUGGUGAAUCUGCUAAUUCUGCUGCAUAUCUC [A5U U43C G63U U74C]	1.16
UAACUGGGGGCCACAGCAGAAGCGUUCACGUCGCAGCCCCUGUCAGAUUCUGGUGAAUCAGUGAAUCCUGCUGCAUACCUC [A5U U60A C62U U67C U74C U78C]	0.31
